Assay results published in the supplement of paper PMC9446081.
Hit rate of the full screen: of about 39,000 compounds, about 220 (0.56%) showed activity. This is one part of the list.

Tested on: Escherichia coli K-12 BW25113
Assay: relative growth (OD600 normalised to plate interquartile mean) (fraction); higher = less growth inhibition, active = 0.2 or less
Conditions: 50 µM; LB; incubation time: overnight (16-24 h)
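Also: static incubation at 37 °C against the wild-type strain, values averaged over two biological replicates.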

Structure (SMILES) | relative growth
Cc1noc(C)c1S(=O)(=O)N(C)C[C@@H]1OCCCC[C@H](C)Oc2ccc(NS(C)(=O)=O)cc2C(=O)N([C@H](C)CO)C[C@@H]1C | inactive: 1.01
Cc1ccc(S(=O)(=O)N(C)C[C@@H]2Oc3cc(Br)ccc3S(=O)(=O)N([C@@H](C)CO)C[C@H]2C)cc1 | inactive: 1.03
C[C@@H]1CN([C@H](C)CO)C(=O)c2cc(NC(=O)Nc3ccc(F)cc3)ccc2O[C@@H]1CN(C)S(=O)(=O)c1cn(C)cn1 | inactive: 1.01
C=CCOc1ccc(C(=O)C2=C(O)C(=O)N(CCCN3CCOCC3)[C@@]23C(=O)N(C)c2ccccc23)cc1C | inactive: 1.02
Nc1ncn(C2OC(CO)C(O)C2O)c(=O)n1 (stereo not drawn) | active: 0.05
Cc1ccc(S(=O)(=O)N[C@@H](Cc2ccccc2)C(=O)NCCCn2cc(C(=O)NO)nn2)cc1 | inactive: 0.999
COc1ccc(CN2C[C@@H](C)[C@@H](OC)CN(C)C(=O)c3ccc(NC(=O)c4nc5ccccc5s4)cc3OC[C@H]2C)cc1 | inactive: 1.02
CN(C)CCCNC(=O)C[C@H]1C=C[C@H](NS(=O)(=O)c2ccccc2)[C@H](CO)O1 | inactive: 0.992
COc1ccc(S(=O)(=O)Nc2cccc3c2O[C@@H](CN(C)S(=O)(=O)c2cccs2)[C@H](C)CN([C@@H](C)CO)C3=O)cc1 | inactive: 0.972
CC(C)NC(=O)N(C)C[C@H]1Oc2ccc(NC(=O)NC3CCCCC3)cc2C(=O)N([C@H](C)CO)C[C@@H]1C | inactive: 0.981
CC(C)NC(=O)Nc1ccc2c(c1)C(=O)N([C@@H](C)CO)C[C@H](C)[C@@H](CN(C)C(=O)NC1CCCCC1)O2 | inactive: 1.02
C[C@@H]1CN([C@H](C)CO)C(=O)Cc2cc(NC(=O)Cc3ccccc3)ccc2O[C@H]1CN(C)C(=O)Nc1cccc2ccccc12 | inactive: 1.01
NNC(=O)CS(=O)(=O)c1ccc(C(F)(F)F)cn1 | inactive: 1.03
CCCCCOc1ccc(-c2ccc(-c3ccc(C(=O)N[C@H]4C[C@@H](O)[C@@H](O)NC(=O)[C@@H]5[C@@H](O)[C@@H](C)CN5C(=O)[C@H]([C@@H](C)O)NC(=O)[C@H]([C@H](O)[C@@H](O)c5ccc(O)cc5)NC(=O)[C@@H]5C[C@@H](O)CN5C(=O)[C@H]([C@@H](C)O)NC4=O)cc3)cc2)cc1 | inactive: 1.12
C[C@@H]1CN([C@H](C)CO)C(=O)c2cc(NC(=O)Nc3cccc4ccccc34)ccc2O[C@H]1CN(C)C(=O)NC1CCCCC1 | inactive: 1.01
C[C@H](CO)N1C[C@H](C)[C@@H](CN(C)C(=O)Nc2ccc(C(C)(C)C)cc2)OCc2cn(nn2)CCCC1=O | inactive: 0.981
O=C(CN1CCOC1=O)N1CCC2(CCC(=O)N(CCCn3ccnc3)C2)CC1 | inactive: 0.998
COc1ccc(NC(=O)N(C)C[C@H]2OCCCC[C@H](C)Oc3ccc(NS(=O)(=O)c4cccs4)cc3C(=O)N([C@@H](C)CO)C[C@@H]2C)cc1 | inactive: 1.04
COc1ccc([Si](C)(C)[C@H]2[C@H](CCn3cc([C@H](O)c4ccccc4)nn3)O[C@@]3(C(=O)N(Cc4cccc(N5CCOC5=O)c4)c4ccccc43)[C@@H]2C)cc1 | inactive: 1.02
CC(C)NC(=O)Nc1ccc2c(c1)C(=O)N([C@H](C)CO)C[C@@H](C)[C@H](CN(C)S(=O)(=O)c1ccc(Cl)cc1)O2 | inactive: 1.03

Structure (SMILES) | relative growth
C[C@@H]1CN([C@@H](C)CO)C(=O)Cc2cc(NS(=O)(=O)c3cccs3)ccc2O[C@@H]1CN(C)Cc1ccc(-c2ccccc2)cc1 | inactive: 1.07
C[C@@H]1CN([C@@H](C)CO)C(=O)Cc2cc(NC(=O)CCCCCC(=O)Nc3ccccc3N)ccc2O[C@@H]1CN(C)C(=O)Nc1cccc2ccccc12 | inactive: 0.94
C[C@@H]1CN([C@@H](C)CO)C(=O)c2cc(NC(=O)Nc3ccc(C(F)(F)F)cc3)ccc2O[C@@H]1CN(C)Cc1ccc(-c2ccccc2)cc1 | inactive: 1.03
COc1cc(O)cc(OC)c1OC | inactive: 1.1
C[C@@H]1CCCCO[C@@H](CN(C)S(C)(=O)=O)[C@H](C)CN([C@@H](C)CO)C(=O)c2cc(NS(=O)(=O)c3cccs3)ccc2O1 | inactive: 1.01
C[C@@H]1CN([C@@H](C)CO)C(=O)c2cc(NS(C)(=O)=O)ccc2O[C@@H]1CN(C)Cc1ccc(C(=O)Nc2ccccc2N)cc1 | inactive: 1
O=C(NC(Cc1cc(=O)[nH]c2ccccc12)C(=O)O)c1ccc(Cl)cc1 (stereo not drawn) | inactive: 0.965
Cn1cc(C[C@@H](N)C(=O)O)c2ccccc21 | inactive: 0.998
CC(C)CC#Cc1cnc2c(c1)C(=O)N([C@@H](C)CO)C[C@H](C)[C@@H](CN(C)S(=O)(=O)c1cccs1)O2 | inactive: 1.01
Cc1nc2cc(C)c(C)cc2s1 | inactive: 0.994
CCN(CC)CCCCNc1ncc2cc(-c3c(Cl)cccc3Cl)c(NC(=O)NC(C)(C)C)nc2n1 | inactive: 0.984
C[C@H](CO)N1C[C@H](C)[C@@H](CN(C)S(=O)(=O)c2cccc(C#N)c2)OCc2cnnn2CCCC1=O | inactive: 0.984
O=C([O-])Cc1ccccc1Nc1c(Cl)cccc1Cl.[Na+] | inactive: 1.13
O=C(/C=C/c1ccc(O)c(O)c1)O[C@H]([C@H](OC(=O)/C=C/c1ccc(O)c(O)c1)[C@H](OC(=O)/C=C/c1ccc(O)c(O)c1)C(=O)O)[C@@H](OC(=O)/C=C/c1ccc(O)c(O)c1)C(=O)O | inactive: 0.975
COCC(=O)N(C)C[C@@H]1Oc2cc(C#C[C@H](C)O)ccc2S(=O)(=O)N([C@H](C)CO)C[C@H]1C | inactive: 1.02
Cc1noc(C)c1S(=O)(=O)N(C)C[C@H]1Oc2ccc(NC(=O)Cc3cn(C)c4ccccc34)cc2CC(=O)N([C@@H](C)CO)C[C@H]1C | inactive: 1.01
COc1ccc(CCNC(=O)[C@@]2(Sc3ccc(C)cc3)CC(=O)N(C(C)C)[C@@H]2c2ccc(CO)cc2)cc1 | inactive: 1.01
C[C@H](CO)N1C[C@H](C)[C@H](CN(C)C(=O)NC2CCCCC2)OCCCC[C@H](C)Oc2ccc(NC(=O)Cc3ccccc3)cc2C1=O | inactive: 0.975
C[C@H](CO)N1C[C@H](C)[C@H](CN(C)Cc2ccccc2)Oc2c(NC(=O)CCCCCC(=O)Nc3ccccc3N)cccc2C1=O | inactive: 1.02
C[C@@H]1CCCCO[C@H](CN(C)C(=O)Cc2ccccc2)[C@@H](C)CN([C@@H](C)CO)C(=O)c2cc(NS(=O)(=O)c3cccs3)ccc2O1 | inactive: 0.997

Structure (SMILES) | relative growth
COc1cc2c(cc1-c1coc3c4c(c(OC)cc3c1=O)OC(C)(C)CC4)OCO2 | inactive: 1.09
C[C@@H]1CCCCO[C@@H](CN(C)Cc2ccccc2)[C@@H](C)CN([C@H](C)CO)C(=O)c2cc(NS(=O)(=O)c3cccs3)ccc2O1 | inactive: 1.01
CCCCCCO[C@H](C)c1c(c/2[nH]c1/C=C/1\N=C(/C=C/3\NC4=C(CC(=O)C4=C3C)C3=N/C(=C2)[C@@H](C)[C@@H]3CCC(=O)O)C(=C1C)CC)C | inactive: 1.25
COc1ccc(S(=O)(=O)Nc2ccc3c(c2)C(=O)N([C@H](C)CO)C[C@H](C)[C@H](CN(C)Cc2ccc(C(=O)Nc4ccccc4N)cc2)OCCCC[C@@H](C)O3)cc1 | inactive: 1.03
C[C@@H]1CN([C@H](C)CO)C(=O)Cc2cc(NC(=O)Cn3cnnn3)ccc2O[C@@H]1CN(C)CC1CC1 | inactive: 0.972
COc1ccc(-c2cc(=O)c3c(O)cc(O[C@@H]4O[C@@H](CO[C@@H]5O[C@H](C)[C@@H](O)[C@H](O)[C@H]5O)[C@H](O)[C@@H](O)[C@H]4O)cc3o2)cc1O | inactive: 1.01
C[C@H](CO)N1C[C@H](C)[C@@H](CN(C)S(=O)(=O)c2ccc(Cl)cc2)OCCCC[C@H](C)Oc2ccc(NC(=O)Nc3ccc4c(c3)OCO4)cc2C1=O | inactive: 1.03
C[C@@H]1CCCCO[C@H](CN(C)Cc2ccc3c(c2)OCO3)[C@@H](C)CN([C@H](C)CO)C(=O)c2cc(NS(=O)(=O)c3ccc(F)cc3)ccc2O1 | inactive: 0.988
CCOC(=O)[C@@H](C#N)C(=O)C1CC1 | inactive: 1.01
C[C@@H]1CN([C@H](C)CO)C(=O)c2cc(NC(=O)CCCN(C)C)ccc2O[C@H]1CN(C)C(=O)Nc1ccc(F)cc1 | inactive: 1.03
C[C@H](CO)N1C[C@H](C)[C@H](CN(C)C(=O)Nc2cccc3ccccc23)OCCCC[C@H](C)Oc2ccc(NS(=O)(=O)c3ccc(F)cc3)cc2C1=O | inactive: 0.999
Cc1noc(C)c1NC(=O)N[C@H]1C=C[C@@H](CC(=O)NCCCN(C)C)O[C@@H]1CO | inactive: 1.02
C[C@H](CO)N1C[C@H](C)[C@H](CN(C)Cc2ccc(C(=O)O)cc2)OCCCC[C@H](C)Oc2ccc(NC(=O)Nc3ccc(C(F)(F)F)cc3)cc2C1=O | inactive: 0.874
Cc1noc(C)c1S(=O)(=O)N(C)C[C@@H]1OCCCC[C@H](C)Oc2ccc(NC(=O)Nc3ccccc3)cc2C(=O)N([C@H](C)CO)C[C@H]1C | inactive: 1
CCOC(=O)N(C)C[C@H]1OCc2cnnn2CCCC(=O)N([C@@H](C)CO)C[C@H]1C | inactive: 1.01
CC(C)NC(=O)Nc1cccc2c1O[C@H](CN(C)Cc1ccc(Oc3ccccc3)cc1)[C@@H](C)CN([C@@H](C)CO)C2=O | inactive: 0.944
C[C@@H]1CCCCO[C@@H](CN(C)CC2CCCCC2)[C@@H](C)CN([C@@H](C)CO)C(=O)c2cc(NC(=O)Nc3ccccc3)ccc2O1 | inactive: 1.02
C[C@@H]1CCCCO[C@@H](CN(C)C(=O)Nc2cccc3ccccc23)[C@@H](C)CN([C@H](C)CO)C(=O)c2cc(NC(=O)Nc3ccc4c(c3)OCO4)ccc2O1 | inactive: 1.02
